The full ranking holds about 33,000 sequences; the median of “E-score (-0.5 to 0.5)” is about -0.017, and the highest 2% start at about 0.3. The list shows a part of the results.
biological target: T1, Sut1 (UniProt P53032); assay: PBM E-score (8-mer binding enrichment) (E-score (-0.5 to 0.5)); higher = stronger / more preferred TF binding; most listed sequences are background and not binding sites; details: protein concentration: 200 nM; construct: GST-full length
T1 sequence: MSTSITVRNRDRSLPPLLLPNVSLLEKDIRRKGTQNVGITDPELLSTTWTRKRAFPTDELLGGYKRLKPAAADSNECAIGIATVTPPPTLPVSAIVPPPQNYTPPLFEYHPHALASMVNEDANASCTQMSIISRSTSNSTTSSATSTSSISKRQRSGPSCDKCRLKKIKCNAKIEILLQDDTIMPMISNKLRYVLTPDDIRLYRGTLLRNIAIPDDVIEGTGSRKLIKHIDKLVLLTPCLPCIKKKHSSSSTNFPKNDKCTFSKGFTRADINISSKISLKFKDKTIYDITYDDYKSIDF
Outline: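 Using PURExpress in vitro transcription/translation, GST-tagged yeast transcription factors were made in full-length or DNA-binding-domain form. These were applied at about 100-200 nM to double-stranded universal all-10-mer Agilent arrays, and bound protein was detected with fluorescent anti-GST. Scans were normalised with masliner before the Universal PBM Analysis Suite assigned E-scores to ungapped eight-base words pooled with their reverse complements.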

Sequence	PBM E-score
CGGACCTC	0.411
CGCTTGGC	-0.388
CGAGACTA	0.115
GATGCGGC	-0.172
AGTTTAAC	0.0735
GCAGGGGA	-0.296
CGGAACGC	0.0642
AGCCTGGC	-0.173
GTAGCCCA	-0.208
TCGATGAA	0.177
ATCATCAA	0.0572
ATTCTCTC	4e-05
AAGTGAGA	-0.086
CGCTCGTA	-0.145
TAACTGCA	0.0867
CTACAATA	0.181
TAGCGGGA	-0.164
GCTACAAC	0.0937
ATTCAACC	0.00502
AGTCGCTG	-0.202
TAAGTGGA	0.0529
CCGGAAGC	0.208
ATCTCCAA	0.158
ACAGTAAG	0.0205
GTCCCTCA	-0.272

Sequence	PBM E-score
CGGTCTCA	0.00484
GTCAAGCA	-0.343
AGTTAAAT	0.225
GGGCATGA	-0.273
CTATATTC	0.0472
ACGAGGCT	-0.025
CTAATGGA	0.0635
CCCCGATC	-0.0506
TTTCAAAA	0.282
AACTGGTA	0.0222
TAGGGGGA	-0.131
GTTCCGAA	0.267
AGTACACT	-0.092
TCAGCAGA	-0.153
GTGTTTTA	0.122
CCTCCGGA	0.374
AACGAGGT	-0.114
ATTAACCA	0.102
AACACCAG	-0.074
CCGAGCAG	-0.0299
AGGGGGAC	-0.308
ACCGCTTC	-0.0583
CCAGGTGA	-0.216
ATGGTATG	0.00799
GTATCTTA	0.216

Sequence	PBM E-score
CCAAATAA	0.0249
AAATCAAG	0.144
ACATGACA	0.165
CCAATCTC	0.131
ACCTAACC	0.04
TCGGCAGA	-0.00987
ACCCAACC	0.067
AAGAACTT	0.183
CTTTCTCA	0.208
GAAAAAAC	0.268
ATAATGAT	0.273
CTTGATGC	-0.0328
AGATGGAG	-0.143
AGGTGCCA	-0.00648
CACCTGGC	-0.206
GAGTAGGC	0.0511
GCGGTAGC	-0.146
ATACCACA	0.0667
ATACGGTA	0.168
CGAGACCC	-0.13
CGTGTTCC	0.113
CTTCGTTC	-0.00724
GCGTCTCC	-0.033
GAGACGAA	-0.0447
ATGTGATC	0.144

Sequence	PBM E-score
CGTATAAA	0.214
GCCTATCA	0.042
ATATAGGA	0.0279
ATCACTTG	-0.0418
GCGGGGGA	-0.222
GGTCGCAA	-0.00335
CCATCACC	-0.153
ACACTTCC	-0.0188
ACCGTGTC	-0.0975
CCAAGGCA	-0.0581
GACCCAAC	-0.0309
CTCCGGCA	0.423
GGGTCGAC	-0.0252
AATGTCGC	-0.177
CTCCTTTC	0.0215
CAGCGTAC	-0.109
AAGCTTTA	0.0497
ACTGTAGA	0.0876
CAGGTCGC	-0.341
CGGGGTAC	0.232
ATTTCTCA	0.179
TCAAATAA	0.187
AGGGTATA	0.0805
ATGGGTTC	-0.3
GACAGATC	0.0841

Sequence	PBM E-score
ACAAAACC	0.262
CATTTATC	0.158
AACTCCCT	-0.0108
GAGGGTAA	-0.107
ACCTCGGG	-0.174
GTTTTATA	0.221
ACGATTCT	0.168
ACTCAATG	0.104
GACGACCC	-0.229
CTGCTCTC	-0.104
GCATCTAC	-0.0256
CGCCGTAC	-0.0681
CAGCTTTC	-0.183
GCGGGGCA	-0.264
AACAGAAG	0.23
CAACGCCG	-0.123
CCACAAGC	-0.29
GACTCAGC	-0.0752
ACTCAGTA	0.088
AAGGCACC	-0.0888
CTACTCAA	0.226
CCGTGTAA	0.0974
ACGTGTCA	-0.113
CTACGCGC	-0.12
GCGATTGA	-0.0384

Sequence	PBM E-score
TAAGGCCA	0.0143
GCGGTGAC	-0.156
TCTGCGAA	-0.131
ACAGTTCT	0.123
CGAGCAAG	-0.157
ACACGTTG	-0.218
ACATCCCC	-0.126
AGAAACGA	0.12
ATGCCCCG	-0.222
CCCCCAAA	-0.252
CCTCTGAG	-0.0249
TACCGCAA	0.0263
ACGGTGAG	-0.143
CCATGGTA	-0.0897
CATCCTGA	0.00271
GAGATCGC	-0.0109
AGAGGGCG	-0.144
GACCTGAC	-0.207
ACAGTGAA	0.0332
CCCAGTAG	-0.131
GGCATAAA	0.123
AAAGACAG	0.205
GTAGGAGA	-0.0911
GAGGCCCA	-0.267
AGCCCCTA	-0.263

Sequence	PBM E-score
TGAACTAA	0.0997
AATGTACC	-0.0198
CCTACTCA	0.021
CGTTTCCC	0.093
AAGTTATC	0.155
CTCGAGAG	-0.12
GGATAACC	0.0177
CGCACAGA	-0.279
CGCGACAG	-0.283
CTCCGTAA	0.328
CCCATCTC	-0.18
AAGCGGAG	0.169
CGATTTCA	0.0969
CAGGACTA	-0.0566
CAACTATG	0.0519
CCCTTGAC	-0.13
CTCGTTTA	-0.00379
CGTTTCCA	0.0743
AAGATCTT	0.158
CTCTGCAG	-0.203
CTTTTTAA	0.00676
CGGCGTCA	-0.0663
ACAAGCGG	0.133
ATCATGAC	0.0515
ATGAGAAC	0.0799

Sequence	PBM E-score
ACCGTAAT	0.0377
GATGTCAC	-0.0111
AATAGACC	0.0391
CGGAACTC	0.247
CCAGCCGA	-0.242
ACTATCAA	0.233
CACCGTAC	0.0478
AAATCCTG	0.0973
TCTAATCA	0.145
CATGCTTA	0.0253
AAGCGTCT	-0.272
CTACGTAG	0.0263
GGATTTTA	0.16
CAATGACG	-0.0145
TATTATCA	0.277
AGGCCTTA	-0.127
ATGTAAGC	0.0518
CCTAAAGA	0.0405
GAGATTCA	0.135
TGGAAACA	-0.015
ACGAACAC	-0.125
AGTGGCTA	-0.0286
GTAATCGA	0.0961
AATCTGCC	0.0643
GTCTCCGA	0.338

Sequence	PBM E-score
ACTGGCCA	-0.0799
AAATTAAA	0.333
ACGAAACA	0.087
GTCTGCCA	-0.131
AACGTCTT	-0.113
GTACCCTA	0.0342
GCATCAGA	0.0373
TATAAACA	0.297
TATGTGCA	-0.0445
CGCTGACG	-0.331
GCCGCTCC	-0.14
ACACCTGT	-0.0292
CAGTTTGA	0.143
CGCTGCAA	0.0457
AAGGCGCT	-0.00133
CCCCGGAG	0.454
AATTCTCT	-0.133
GTCACAAA	-0.00567
CACTGACG	-0.267
GATAATTA	0.216
CGCTCAAA	0.0551
CCGTTCTC	0.0465
CGCAGCCG	-0.106
AACTGCTG	0.0352
AGAGGGTA	-0.223

Sequence	PBM E-score
AAATAGGA	0.0958
ATCCAATA	0.142
AGTGTACG	-0.159
AGCTACCG	-0.177
CGTTAGCC	0.0323
TAAGCGGA	0.16
ACGCCACT	-0.169
CCCAACCC	-0.0724
CAGAACTA	-0.0207
GTTGAGCA	0.0202
GAAAGGAC	0.154
GACAGCTC	-0.174
GATTGTGA	0.186
TACTCTCA	0.0648
CGAAGCGC	-0.0528
CGCCGGTC	-0.0721
CCGAGCCC	-0.0973
ATAGTTAA	0.203
AGTTTGCC	0.0495
AAAATTGA	0.123
CTACTGTA	0.0123
TGGTCTAA	-0.0333
CCCTACCA	-0.0844
GACAGGCC	-0.158
CGAAAGGC	0.00459

Sequence	PBM E-score
GCGGCAGA	-0.213
AGAGGACA	0.00465
ATCTAACC	0.0714
GTGTCATA	0.179
CGAAGGCG	-0.13
AACCGCAT	0.0306
AGTTCGCA	0.0569
ATCGCGAC	-0.07
CCCAACGG	-0.0131
AAGCCACC	-0.198
CCTGAGAG	-0.249
ACCCGTTC	-0.0305
ACTAAACT	0.0855
CGTTTAAC	0.058
AATTGGCT	0.127
ATGACAAA	0.0746
CGAGCTAG	0.183
GCATTCAC	0.0569
ACATCGGC	-0.0386
AAGAATAA	0.182
ACAATAGT	0.0629
GCAAAGAC	-0.00384
AACAGACG	-0.105
AAACTTCG	0.117
ACGGCAAG	-0.0665

Sequence	PBM E-score
CCAGACGA	-0.149
ATCTGGCA	-0.129
ACTTGGAA	-0.0535
AATGCCAC	0.0218
CTACATGC	-0.075
AAGGAGCT	-0.183
GTCGTATA	0.0955
AAGAATAG	0.0544
AATGGAAC	0.0496
ACCAGAGC	-0.0619
AACTCAAG	0.129
CGAAAGCG	-0.13
ACTTGGCG	-0.219
GCGACCCC	-0.313
AGTTGGTA	0.0321
AGGGCTCC	-0.0218
GGGACATA	-0.0931
CCTTGTCG	-0.234
ATCTCATG	-0.0827
ACTGGAGC	-0.337
CGTCGTAC	-0.0274
GGCACGAA	-0.196
AATTAAGT	0.241
CAGATCTG	-0.14
AATTCAGA	0.105

Sequence	PBM E-score
CGACAAAC	-0.0645
TGACCTCA	-0.125
CACGGGGG	-0.28
GGAGTACA	0.245
CAATGCTG	-0.182
CTTGGCAA	-0.162
GGAATTCA	0.156
ACAAAACT	0.145
CAAAAGCG	-0.0511
AATCTAGG	0.00837
AGCGTGTA	-0.115
ACAGTGTG	-0.196
GAATAGAC	-0.0915
GTTGATCA	0.0012
CCAAAAGG	-0.0868
ACATAATA	0.278
CCTCAATC	0.00675
ACTGATGA	0.0353
GAAACCGA	-0.145
GTGGGTGA	0.0308
CATCGGAG	0.435
CTGATCAA	-0.207
CTGCAAGC	-0.0892
CCAGCAGA	-0.273
CAATCGGC	-0.049

Sequence	PBM E-score
ACAAATTC	0.096
CCTGACAG	-0.193
GCCGCACC	-0.0928
GCCAAACA	0.105
TGTGCCAA	-0.0053
CAGTATTC	0.142
CACAATAA	0.0667
CCAAGCTC	0.0466
GCCGAAAA	0.263
CTGTACGC	-0.205
CTAGTGCA	-0.00232
AGTCAACT	-0.157
GCAAAGCA	-0.17
GCTCGGCC	-0.204
AATCGGGA	0.14
CTCCCGTC	-0.00842
ACAGTACT	-0.0354
AGGGCTCA	-0.318
CTATCGAC	-0.169
